According to PMC4336329 (PLoS ONE, 2015):
In all, about 310,000 compounds went through this assay and about 14,000 (4.5%) showed an effect of 50% or more. The effect is printed as a negative number. Some of the results follow.

target: human ether-à-go-go-related gene (hERG) potassium channel (human, UniProt Q12809); experiment: primary screen, population patch clamp on CHO cells stably expressing hERG
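Also: peak tail current of the secondary pulse compared with the same well before compound.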

human ether-à-go-go-related gene (hERG) potassium channel, sequence (Q12809 whole entry, looked up): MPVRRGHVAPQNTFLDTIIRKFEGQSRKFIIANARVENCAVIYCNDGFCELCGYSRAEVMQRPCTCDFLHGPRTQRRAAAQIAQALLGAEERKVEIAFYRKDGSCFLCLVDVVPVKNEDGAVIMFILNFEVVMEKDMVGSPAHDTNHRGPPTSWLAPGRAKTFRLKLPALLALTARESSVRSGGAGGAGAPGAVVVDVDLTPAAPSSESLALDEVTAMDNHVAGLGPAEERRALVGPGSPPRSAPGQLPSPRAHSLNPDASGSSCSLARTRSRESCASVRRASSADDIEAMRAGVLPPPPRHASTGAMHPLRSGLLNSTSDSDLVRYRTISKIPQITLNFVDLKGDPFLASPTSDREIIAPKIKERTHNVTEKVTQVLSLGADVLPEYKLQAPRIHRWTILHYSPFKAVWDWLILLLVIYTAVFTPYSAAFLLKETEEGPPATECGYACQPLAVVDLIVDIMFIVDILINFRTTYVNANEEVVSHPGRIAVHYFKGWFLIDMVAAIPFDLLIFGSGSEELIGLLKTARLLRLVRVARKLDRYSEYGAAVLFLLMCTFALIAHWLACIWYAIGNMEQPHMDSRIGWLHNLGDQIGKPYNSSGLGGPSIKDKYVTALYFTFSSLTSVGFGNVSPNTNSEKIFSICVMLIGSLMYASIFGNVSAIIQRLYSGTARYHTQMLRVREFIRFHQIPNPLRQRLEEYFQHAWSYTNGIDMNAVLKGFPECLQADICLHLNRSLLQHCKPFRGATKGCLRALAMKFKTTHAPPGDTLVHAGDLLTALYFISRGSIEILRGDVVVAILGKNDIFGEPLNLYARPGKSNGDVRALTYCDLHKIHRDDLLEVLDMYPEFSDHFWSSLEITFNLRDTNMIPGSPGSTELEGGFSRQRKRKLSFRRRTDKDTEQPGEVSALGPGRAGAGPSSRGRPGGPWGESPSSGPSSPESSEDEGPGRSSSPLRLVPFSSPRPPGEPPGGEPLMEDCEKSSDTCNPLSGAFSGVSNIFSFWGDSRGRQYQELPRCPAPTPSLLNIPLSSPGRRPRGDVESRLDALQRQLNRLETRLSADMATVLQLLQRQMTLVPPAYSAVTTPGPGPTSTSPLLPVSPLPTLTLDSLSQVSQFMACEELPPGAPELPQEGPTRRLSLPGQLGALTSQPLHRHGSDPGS

| Structure (SMILES) | hERG current change (%, negative = inhibition) at 10uM [%] |
| --- | --- |
| CC(C)C(=O)Nc1nnc(SCC(=O)Nc2ccc3c(c2)OCCO3)s1 | 6.24 |
| CCn1ncc(Br)c1C(=O)Nc1ccc(OC(F)(F)F)cc1 | -5.96 |
| c1ccc(Nc2c3c(nc4ncnn24)CCC3)cc1 | -54.5 |
| Cc1nn(CC(=O)N2CCCc3ccccc32)c(C)c1[N+](=O)[O-] | 4.33 |
| CN(C)c1ccc(C(=O)N2CCCC2)cc1 | 13.1 |
| Cc1nc2c3cc(F)ccc3n(CCN3CCCCC3)c2s1.Cl | -69.9 |
| O=C(CNC(=O)c1cccs1)N=Nc1c(O)[nH]c2ccc([N+](=O)[O-])cc12 | 5.11 |
| CC1=C(C(=O)Nc2ccc(C(=O)NCCC(C)C)cc2)SCCO1 | -2.09 |
| CC(C)[C@H](NS(=O)(=O)c1ccccc1)C(=O)OCC(=O)NC(=O)c1cccn1C | -10.4 |
| COc1ccc2[nH]c(=O)c(COC(=O)c3ccco3)cc2c1 | 17.6 |
| CCc1ccc(NC(=O)CSc2nnc(-c3n[nH]c4ccccc34)n2-c2ccccc2)cc1 | 41 |
| CCn1c(SCC(=O)Nc2cccc(O)c2)nc2c1c(=O)n(C)c(=O)n2C | -1 |
| COc1ccc(N(C(=O)c2ccncc2)S(=O)(=O)c2cccc([N+](=O)[O-])c2)cc1 | -27.5 |
| COc1ccc([N+](=O)[O-])cc1N(CC(=O)NCCSc1ccccc1)S(C)(=O)=O | -30.4 |
| CCc1ccc(-n2c(SCC(=O)Nc3ccc(C(=O)O)cc3)nnc2-c2ccncc2)cc1 | -11.1 |
| COc1cc(NC(=O)CSc2nc(C3CC3)nc3ccccc23)cc(OC)c1 | 11.9 |
| COC(=O)c1sc(NC(=S)NC(=O)c2cccc(Br)c2)nc1C | -5.4 |
| O=C(Nc1ccccn1)C1CCN(c2ncnc3c2nc2n3CCCCC2)CC1 | -7.75 |
| CCn1c(CSc2ncccn2)nnc1SCC(=O)N1CCc2ccccc21 | -16.1 |

| Structure (SMILES) | hERG current change (%, negative = inhibition) at 10uM [%] |
| --- | --- |
| COc1ccc(C2CC(C(F)(F)F)n3nc(C(=O)N(C)Cc4cn(C)nc4C)c(Cl)c3N2)cc1 (centres unmarked) | -14.7 |
| CCOC(=O)c1ccc(N2Cc3ccccc3C2=N)cc1 | -61.3 |
| Clc1ccc(COn2c(-c3ccc(Cl)cc3)nc3ccccc32)cc1 | 1.24 |
| CCC(C)NC(=O)COC(=O)c1ccc(Cl)cc1O (centres unmarked) | 50.7 |
| CCC(=O)Nc1c(C#N)c2nc3ccccc3nc2n1-c1ccccc1C | 25.2 |
| CN1CCN(C(=O)C2=C[C@@H](C(C)(C)C)C[C@@H](OCc3ccc(CO)cc3)O2)CC1 | 1.2 |
| COc1ccc(N2CC(NC(=O)N3CCN(C(=O)c4ccco4)CC3)CC2=O)cc1OC (centres unmarked) | 5.5 |
| COc1ccc(N2C(=O)C3CCCN3C2c2cccc(OC)c2)cc1 (centres unmarked) | -1.59 |
| Cc1ccc(/C=C2/NC(=O)N(c3ccccc3)C2=O)o1 | -1.61 |
| O=C(Cn1nc2sc3ccccc3n2c(=O)c1=O)c1cccs1 | 7.63 |
| Cn1ccnc1C(O)c1ccco1 (centres unmarked) | 4.09 |
| CCCCSc1nc(CCC)cc(=O)[nH]1 | -7.39 |
| O=[N+]([O-])c1ccc(Sc2ccc(F)cc2)nc1 | 11.2 |
| COc1cccc(NC(=O)CSc2ccc(-c3ccco3)nn2)c1 | -48.1 |
| O=C(CCNC(=O)c1ccc([N+](=O)[O-])cc1)Nc1ccc(Cl)c(S(=O)(=O)N2CCOCC2)c1 | -66.2 |
| O=C1CCCC2=C1C1c3ccccc3C(=O)N1c1ccc(C(=O)c3ccccc3)cc1N2 (centres unmarked) | -47.6 |
| CC(=O)N1CCc2cc(S(=O)(=O)NCc3ccc(C)cc3)ccc21 | 6.24 |
| COCCCN1CN=C(NS(=O)(=O)c2ccc(C)cc2)NC1 | 13.3 |
| C#CCSC1=C(C#N)C(c2cccs2)C(C(=O)OCC)=C(C)N1 (centres unmarked) | 12.6 |

| Structure (SMILES) | hERG current change (%, negative = inhibition) at 10uM [%] |
| --- | --- |
| COc1ccc(C2(CNC(=O)c3ccccc3)CCOCC2)cc1 | 12.1 |
| CC(C)CCNC(=O)NC(=O)COC(=O)c1cc(S(=O)(=O)N2CCOCC2)ccc1N1CCCCC1 | 1.53 |
| CC(=O)NCC1COc2ccccc2O1 (centres unmarked) | -4.37 |
| CC1CCCCN1C(=O)COC(=O)c1cccc(NS(=O)(=O)c2ccccc2)c1 (centres unmarked) | 0.629 |
| CCOC(=O)CC(NC(=O)CCc1c(C)nc2ncnn2c1C)c1ccc(OC(C)C)cc1 (centres unmarked) | -8.3 |
| Cc1ccc(OCC(=O)N(Cc2ccccc2)C(C)(C)C)c([N+](=O)[O-])n1 | -17.7 |
| O=C1OC(c2ccc(Cl)cc2)=N/C1=C\N1CC2CC(C1)c1cccc(=O)n1C2 (centres unmarked) | -72 |
| Nc1ccnc(C(F)(F)F)c1C(=O)c1ccccc1 | 5.02 |
| CC(=O)NS(=O)(=O)c1cccnc1Nc1cccc(Cl)c1C | 0.163 |
| CCOC(=O)C1(Cc2ccccc2)CCN(Cc2ccc(C3CCCCO3)s2)CC1 (centres unmarked) | -18.8 |
| CC1CCN(C(=O)C2CCCN(S(C)(=O)=O)C2)CC1 (centres unmarked) | 8.17 |
| COc1ccccc1NC(=O)N1CCN(c2ccc3nncn3n2)CC1 | -23.1 |
| CC(C)CC(=O)Nc1nnc(SCC(=O)NCc2ccc3c(c2)OCO3)s1 | 17.7 |
| Fc1ccccc1CSc1nnc(-c2cccnc2)o1 | 15.2 |
| C#Cc1ccc([C@H]2C=C(C(=O)N3CCOCC3)O[C@@H](OCC)[C@@H]2CCCO)cc1 | 6.65 |
| CCOc1nc(NC2CCCC2)nc(N2CCC(C)CC2)n1 | 1.15 |
| CC(=O)N1c2ccc(S(=O)(=O)N3CCC(C(=O)NCc4ccccc4)CC3)cc2CC1C (centres unmarked) | -9.09 |
| COc1ccc(NC(=O)CC2SC(=NCC3CCCO3)NC2=O)cc1 (centres unmarked) | 0.267 |
